# Measured values from PubChem BioAssay (Tox21).
# Several values for one entry are separate records, joined by “and”; a condition that tells them apart may be missing. Equal entries are not always repeated. Inconclusive means that the source gave no clear call. Such entries were picked first, then a sample of the others. Potencies beside an inconclusive call are fits to weak or partial responses and may not hold up. The source holds several records for some structures; these can differ, active in one and inactive in another. Activity calls are given as the source filed them. The call rests on the fitted dose curve; in most records, active means well fitted cell-killing curve with a large enough effect in the repeat runs; inconclusive means weak or mixed curves, or effect the other way; inactive means no such curve, though single readings can be large or run the other way.
# Assay: qHTS assay to identify small molecule antagonists of the sonic hedgehog signaling (Shh) pathway - cell viability counter screen (AID 1259367); further: nearly all actives have a fitted effect of over 55% in size
# Details: NIH/3T3 Gli1-Luc viability, CellTiter-Fluor, 24 h; series mostly up to 92.4 µM; viability change, negative = cytotoxic: at the top concentration
# Excerpt: National Center for Advancing Translational Sciences [NCATS]
# NIH Chemical Genomics Center [NCGC]
# U.S. Environmental Protection Agency [EPA]
# National Institutes of Environmental Health Sciences [NIEHS]
# National Toxicology Program [NTP]
# U.S. Food and Drug Administration [FDA]
# The sonic hedgehog (Shh) pathway is essential for normal embryonic development. Dysregulation of the Shh pathway can cause severe developmental defects in organs. Therefore chemicals that interfere with the pathway are potential developmental toxicants. A cell line designated 3T3Gli1-Luc (DMB/OARSA/CFSAN/FDA, Laurel, MD), a NIH/3T3 derived clone containing stably integrated Gli1-Luc reporter is used to detect chemical interference of the Shh pathway, by changes in the expression of the firefly Luc gene under the control of the Gli1 transcriptional response element. This cell line was used to screen Tox21 libraries for identifying and prioritizing the potential developmental toxicants that interfere Shh pathway. Conditioned medium-stimulated mode was used to screen for chemicals inhibiting Shh signaling. The cytotoxicity of the compounds was tested in parallel by measuring the cell viability using CellTiter-Fluor assay system (Promega, Madison, WI) in the same wells.
# Tox21 Assay Protocol Summary:
# 3T3 Gli1-Luc cells were dispensed at 2,000 per well in 5uL of culture medium into white solid bottom 1536-well plates (Greiner Bio-One, Monroe, NC) using a Multidrop Combi (Thermo Scientific, Waltham, MA) dispenser. The assay plates were incubated at 37 C and 5% CO2 for 4hr, and then 23nL of compounds dissolved in DMSO and positive control were transferred using a Pintool station (Wako, San Diego, CA). The compound transfer was followed by the addition of 1ul conditioned medium or assay buffer using two separate tips of Flying Reagent Dispenser (FRD, Aurora Discovery, San Diego, CA). The assay plates were incubated at 37C and 5% CO2 for 24hr. For viability read, after 23hr of compound treatment, 1uL of CellTiter-Fluor reagent (Promega Corporation, Madison, WI) was added to each well of the assay plates using Flying Reagent Dispenser (FRD, Aurora Discovery, San Diego, CA) and incubated the assay plates at 37C for 1hr. The fluorescence signal was quantified using a ViewLux plate reader (Perkin Elmer, Shelton, CT).
# On the % scale 0 is the no-effect control and ±100 the full control effect; potency means the concentration at half of the fitted maximal effect; tags describe the fitted curve by direction and shape.
Structure (SMILES),Potency,"viability change, negative = cytotoxic"
c1cc(OCC2CO2)ccc1Cc1ccc(OCC2CO2)cc1 (stereo not given),inconclusive: 68.9 µM [cytotoxic] and active: 61.1 µM,–
CCC[CH2][Sn]([Cl])([Cl])[CH2]CCC,active: 552 nM and active: 770 nM,–
[Cl-].[Cl-].[Hg+2],active: 964 nM and active: 1.93 µM,–
O=C(O)c1cc[c]([Hg][Cl])cc1,active: 43.3 µM,–
CCC[CH2][Sn]([CH2]CCC)([O]C(C)=O)[O]C(C)=O,active: 27.6 µM,–
O=c1oc2ccccc2c(O)c1C(CC(O)c1ccc(-c2ccc(Br)cc2)cc1)c1ccccc1 (stereo not given),inactive,–
COP(=S)(OC)Oc1ccc([N+](=O)[O-])cc1Cl,"inconclusive: 30.6 µM [cytotoxic, partial curve]",–
Oc1ccc(C2(c3ccc(O)cc3)CCCCC2)cc1,"inconclusive: 57.9 µM [cytotoxic, partial curve]",–
O=c1[nH]c2ccccc2n1C1CCN(CCCC(c2ccc(F)cc2)c2ccc(F)cc2)CC1,"inconclusive: 29.8 µM [cytotoxic, partial curve, poor fit]",–
C=CCN1C[C@H](C)N([C@H](c2ccc(C(=O)N(CC)CC)cc2)c2cccc(OC)c2)C[C@H]1C,–,inactive: -2% [at 42.5 µM]
CC(=O)[O][Sn]([c]1ccccc1)([c]1ccccc1)[c]1ccccc1,active: 0.109 µM,–
CC(C)C1CCC(Cc2ccc(Cl)cc2)C1(O)Cn1cncn1 (stereo not given),active: 53.9 µM,–
CCOP(=O)(OCC)Oc1ccc([N+](=O)[O-])cc1,"inconclusive: 61.9 µM [cytotoxic, partial curve, poor fit] and inconclusive: 54.5 µM [cytotoxic, partial curve]",–
N#CSCSC#N,active: 12.5 µM and active: 13.5 µM,–
CN(C)CCc1c[nH]c2ccc(O)cc12,active: 59.7 µM,–
Clc1ccc(C(c2ccc(Cl)cc2)C(Cl)(Cl)Cl)cc1,"inconclusive: 69.1 µM [cytotoxic, single point]",–
Oc1ccc(C2(c3ccc(O)cc3)c3ccccc3-c3ccccc32)cc1,active: 27.3 µM,–
Oc1ccc(-c2ccccc2)cc1,"inconclusive: 54.5 µM [cytotoxic, partial curve]",–
CC(C)=CC1C(C(=O)OCc2coc(Cc3ccccc3)c2)C1(C)C (stereo not given),"inconclusive: 77 µM [cytotoxic, partial curve, poor fit]",–
CC[C@H](C)[C@H]1O[C@]2(C=C[C@@H]1C)C[C@@H]1C[C@@H](C/C=C(\C)[C@@H](O[C@H]3C[C@H](OC)[C@@H](O[C@H]4C[C@H](OC)[C@@H](O)[C@H](C)O4)[C@H](C)O3)[C@@H](C)/C=C/C=C3\CO[C@@H]4[C@H](O)C(C)=C[C@@H](C(=O)O1)[C@]34O)O2,inconclusive: 36.1 µM [cytotoxic],–

Structure (SMILES),Potency,"viability change, negative = cytotoxic"
O=CC(Br)(Br)Br,active: 60.9 µM,–
CCOC(=O)C(O)(c1ccc(Cl)cc1)c1ccc(Cl)cc1,"inconclusive: 69.3 µM [cytotoxic, partial curve, poor fit] and inconclusive: 68.6 µM [cytotoxic, single point]",–
Cc1ccc(N)c(N)c1,"inconclusive: 54.6 µM [cytotoxic, partial curve] and inconclusive: 61.1 µM [cytotoxic, partial curve, poor fit]",–
NC(=S)c1c(Cl)cccc1Cl,–,inactive: 2.77%
Nc1ccc([N+](=O)[O-])cc1,inconclusive: 27.3 µM [cytotoxic],–
CN1C[C@H](C(=O)N[C@]2(C)O[C@@]3(O)[C@@H]4CCCN4C(=O)[C@H](Cc4ccccc4)N3C2=O)C=C2c3cccc4[nH]cc(c34)C[C@H]21,"inconclusive: 4.88 µM [cytotoxic, full curve] and inconclusive: 10.1 µM [cytotoxic, partial curve]",–
COCC(C)N(C(=O)CCl)c1c(C)csc1C (stereo not given),inconclusive: 68.6 µM [cytotoxic],–
CCN(CC)C(=S)S,"inconclusive: 9.77 µM [cytotoxic, full curve, poor fit] and active: 7.65 µM",–
CC(c1ccc(O)cc1)(c1ccc(O)cc1)c1ccc(O)cc1,"inconclusive: 68.6 µM [cytotoxic, single point]",–
ClC1=C(Cl)C2(Cl)C3C(Cl)C(Cl)CC3C1(Cl)C2(Cl)Cl (stereo not given),inconclusive: 68.4 µM [cytotoxic],–
CN1CCc2cc3c(cc2C1O)OCO3 (stereo not given),"inconclusive: 17.3 µM [rising, full curve]",–
CC(C)(C)CC(C)(C)c1ccc(O)cc1,"inconclusive: 30.6 µM [cytotoxic] and inconclusive: 26.6 µM [cytotoxic, partial curve, poor fit]",–
O=P(Oc1ccccc1)(Oc1ccccc1)Oc1ccccc1,"inconclusive: 34.2 µM [cytotoxic, partial curve]",–
[CH3][Hg][Cl],active: 68.4 µM,–
ClC1C(Cl)C(Cl)C(Cl)C(Cl)C1Cl (stereo not given),"inconclusive: 70 µM [cytotoxic, partial curve, poor fit] and inconclusive: 68.6 µM [cytotoxic, partial curve, poor fit]",–
O=C1c2ccccc2C(=O)N1SC(Cl)(Cl)Cl,active: 9.55 µM and active: 17.2 µM,–
CCOP(=S)(OCC)SC(CCl)N1C(=O)c2ccccc2C1=O (stereo not given),–,inactive: 6.71%
Nc1ccc(-c2ccc(N)c(N)c2)cc1N,"inconclusive: 30.5 µM [cytotoxic, partial curve]",–
CCC[CH2][Sn]([Cl])([CH2]CCC)[CH2]CCC,active: 487 nM and active: 770 nM,–
COc1ccc(C(c2ccc(OC)cc2)C(Cl)(Cl)Cl)cc1,"inconclusive: 68.2 µM [cytotoxic, partial curve, poor fit]",–
